According to the antibiotic and cytotoxicity screens of Wong et al. (2023):
The other results are listed elsewhere or left out.

System: S. aureus RN4220
Assay: growth inhibition call (relative growth <= 0.2)
Settings: 50 µM

Growth inhibition call, inactive:
C[C@@H]1CCCCO[C@@H](CN(C)C(=O)Nc2ccccc2)[C@@H](C)CN([C@@H](C)CO)C(=O)c2cc(NS(=O)(=O)c3ccc(Cl)cc3)ccc2O1
Cc1ccc(S(=O)(=O)Nc2ccc3c(c2)C(=O)N([C@@H](C)CO)C[C@H](C)[C@H](CN(C)Cc2ccc(C(=O)O)cc2)OCCCC[C@H](C)O3)cc1
C=CCN(Cc1ccccc1)C(=O)[C@@H]1N(c2c(Cl)cccc2CO)C(=O)[C@@H]2[C@H](C(=O)O)[C@@H]3C=C[C@@]21O3
Cc1noc(C)c1S(=O)(=O)Nc1ccc2c(c1)CC(=O)N([C@H](C)CO)C[C@H](C)[C@H](CN(C)S(=O)(=O)c1c(C)noc1C)O2
O=c1c(O)c(O)cc2cccc(O)c(O)c1-2
C[C@@H]1CN([C@H](C)CO)S(=O)(=O)c2ccc(C#Cc3ccncc3)cc2O[C@H]1CN(C)C(=O)C1CCCCC1
CC(C)C[C@@](O)(CC(=O)O)C(=O)O
CC(C)(C)[S@](=O)N1Cc2cc(C(=O)NC3CCCCC3)nc(-c3cccc(Br)c3)c2[C@@H]1CCO
O=C(C[C@@H]1CC[C@H]2[C@@H](COC[C@@H](O)CN2C(=O)c2ccccc2F)O1)N1CCN(c2ccccc2)CC1
C[C@H]1CN([C@@H](C)CO)C(=O)CCCn2cc(nn2)CO[C@H]1CN(C)C(=O)c1cc(-c2ccccc2)on1
Nc1ccc(CCNc2ncnc3c2ncn3[C@@H]2O[C@H](CO)[C@@H](O)[C@H]2O)cc1
C[C@@H]1CN([C@@H](C)CO)S(=O)(=O)c2ccc(C#Cc3cccnc3)cc2O[C@H]1CN(C)CC1CCCC1
